In PubChem BioAssay AID463173 (ICCB-Longwood Screening Facility, Harvard Medical School, 2010):
Among all 52,000 compounds or so, about 1,700 (3.3%) were called active. Rule as the data show it: active = survival mostly below about 52% (no sharp cut-off); inactive = mostly above about 56%. Some of the results follow.

tested on: Wild type; experiment: S. aureus survival, RN4220 and DeltatarO strains – OD600, teichoic acid synthesis inhibitors, primary screen (AID 463173); conditions: S. aureus RN4220 wild type/DeltatarO growth, OD600, 18 h, hits give low values, screened at 18.75 µg/mL (by protocol)

SMILES	survival
CCOC(=O)c1c(C)[nH]c(C)c1S(=O)(=O)N1CCCC(C(=O)Nc2ccc(C)cn2)C1 (configuration not stated)	inactive: 76%
CCOc1ccc(Nc2ncnc3c2nc2n3CCCC2)cc1	inactive: 51%
CCOc1ccc(NC(=O)CSc2ccc(-c3sc(-c4ccccc4)nc3C)nn2)cc1	inactive: 42%
CCOc1ccccc1CNC(=O)c1c(C)oc2ncnc(N3CCOCC3)c12	inactive: 78%
NC(=O)CN(c1ccccc1)C1SC(=O)NC1=O (configuration not stated)	inactive: 92%
Cc1ccccc1C(=O)NC1(C(F)(F)F)N=C(c2ccccc2)N(C2CCCCC2)C1=O (configuration not stated)	inactive: 75%
CCOC(=O)c1oc2ccc(S(=O)(=O)n3nc(-c4cc(OC)c(OC)c(OC)c4)cc3N)cc2c1C	inactive: 98%
CCOc1ccc2nc(Cl)c(C3CC(c4ccc(OC)cc4)=NN3S(C)(=O)=O)cc2c1 (configuration not stated)	inactive: 132%
CCOC(=O)CNC(=O)Nc1cc(C(=O)NCc2ccccc2OC)ccc1N1CCCC1	inactive: 77%
CC(C)C(=O)Nc1ccccc1OCc1cc(=O)n2ccccc2n1	inactive: 111%
COc1ccc(Cl)cc1NC(=O)C1CCCN(c2ncnc3onc(C)c23)C1 (configuration not stated)	inactive: 128%
N#CCCn1c(=O)[nH]c(=O)n(CCC#N)c1=O	inactive: 101%
CCC(Oc1ccccc1F)C(=O)N1CCC(c2nc3ccccc3s2)CC1 (configuration not stated)	active: -3%
CCOc1ccc(NC(=O)C2CCCN(c3ccc(Sc4ccc(C)cc4)nn3)C2)cc1 (configuration not stated)	active: 16%
COC(=O)C(CCSC)NC(=O)c1cc2c(n(-c3ccc(Cl)cc3)c1=O)CCCC2=O (configuration not stated)	inactive: 72%
O=C(NC(=O)c1ccccc1)Nc1ccc(-c2cc(C(F)(F)F)nn2-c2ccccc2)cc1	inactive: 101%
CCCn1c(CNC(=O)c2ccc(F)cc2)nc2ccccc21	inactive: 69%
O=C(CCCN1C(=O)C(c2ccccc2)Oc2cccnc21)Nc1ccccc1C(F)(F)F (configuration not stated)	inactive: 113%
Cc1ccc2oc(-c3ccc(C)c(NC(=O)c4ccc(N5CCC(C)CC5)c([N+](=O)[O-])c4)c3)nc2c1	inactive: 141%

SMILES	survival
Cc1cccc(NC(=O)c2cc3c(=O)n4cccc(C)c4nc3s2)c1C	inactive: 86%
O=c1c2cc3c(cc2n(Cc2ccc(F)cc2)c(=O)n1Cc1nc(-c2ccccc2)no1)OCO3	inactive: 70%
Cc1cccc(NC(=O)c2ccc3snnc3c2)c1C	inactive: 101%
CC(C)CN(CCCNC(=O)CN1N=C(c2ccc(Cl)cc2)CCC1=O)CC(C)C	inactive: 75%
COc1ccc2c(c1)CCc1c(C(=O)Nc3c(C)nn(Cc4ccccc4C)c3C)noc1-2	inactive: 26%
Clc1ccc2c(c1)NC(c1ccncc1)=NC(c1cccs1)=N2	inactive: 79%
COC(=O)c1c(SC)nc2ccccc2c1OCc1ccc(Cl)cc1	inactive: 79%
COc1cc(CNC(=O)c2ccc3nc(CCc4ccccc4)oc3c2)cc(OC)c1OC	inactive: 66%
CCOc1ccccc1NC(=O)C(CC(C)C)NS(=O)(=O)c1ccc2c(c1)oc(=O)n2C (configuration not stated)	inactive: 141%
CCN1CCN(C(=O)c2cnn(-c3cccc(Cl)c3)c2C2CCN(C(=O)OC(C)(C)C)CC2)CC1	inactive: 83%
O=C(COCc1cc(-c2ccc3c(c2)OCO3)on1)N1CCN(c2cccc(Cl)c2)CC1	inactive: 45%
CNS(=O)(=O)c1cn(CC(=O)N2CCN(c3cccc(C)c3C)CC2)cc1S(=O)(=O)NC	inactive: 88%
Cc1ccc(S(=O)(=O)N(Cc2nc(-c3cccc(C)c3)no2)C2CCCCC2)cc1	inactive: 83%
O=c1cc(-c2ccccc2)nc(SCc2nc(-c3ccc(Cl)cc3)no2)[nH]1	inactive: 88%
O=C1CC2CCC(CN1)N2CC(=O)Nc1ccc(F)cc1 (configuration not stated)	inactive: 105%
COc1ccc2nc(NS(=O)(=O)Cc3ccccc3)sc2c1	inactive: 107%
COc1ccc(N2Cc3cccc(C(=O)Nc4cc(C)cc(C)c4)c3C2=O)cc1	inactive: 86%
CSC1=NC2(CCN(C(=O)NC3CCCCC3)CC2)N=C1c1ccc(C)cc1	inactive: 74%
Cc1cc(F)ccc1NC(=O)CCS(=O)(=O)c1ccc2c(c1)CC(C)N2C(=O)C1CC1 (configuration not stated)	inactive: 71%

SMILES	survival
O=C(C1COc2ccccc2O1)N1CCN(c2nc3ccc(F)cc3s2)CC1 (configuration not stated)	inactive: 75%
Cc1noc(-c2ccc(-c3noc(-c4cccc(F)c4)n3)cc2)n1	inactive: 67%
NC(=O)C1CCN(C(=O)c2cccc(NC(=O)c3nsc4ccccc34)c2)CC1	inactive: 79%
CCN(CC)S(=O)(=O)c1nnc(NC(=O)COc2ccccc2F)s1	inactive: 101%
COCCN(C(=O)c1ccccc1)c1nnc(-c2ccncc2)s1	inactive: 105%
Nc1c(C(=O)Nc2ccc(OC(F)(F)F)cc2)nnn1Cc1ccccc1	inactive: 73%
CCOc1ccc(CNC(=O)CSc2cc(=O)n(CC)c3ccccc23)cc1	inactive: 71%
Cn1c(=O)c2c(nc(SCC(=O)Nc3ccccc3)n2Cc2ccccc2F)n(C)c1=O	inactive: 74%
O=C(C1COc2ccccc2O1)N(Cc1cccnc1)c1nc2ccc(Cl)cc2s1 (configuration not stated)	inactive: 71%
Cc1ccc(C#N)c(=O)n1CC(=O)Nc1ccccc1C(F)(F)F	inactive: 140%
Fc1ccc(CNc2ncnc3onc(-c4ccc(F)cc4)c23)cc1	inactive: 77%
CCc1c(CN2CCN(c3cccc(C)c3C)CC2)csc1C	inactive: 86%
CCc1cccc(C)c1Nc1c(-c2ccccc2)nc2sccn12	inactive: 35%
CCOC(=O)N1CCN(Cc2nc3cc(NC(=O)c4ccccc4[N+](=O)[O-])ccc3n2C(C)C)CC1	inactive: 112%
Cc1ccc(-n2c3nc(=O)[nH]c(=O)c-3cc3c(C)nn(-c4ccccc4)c32)cc1Cl	inactive: 88%
O=C(NC1CCCCC1)c1ccc(Cn2c(SCc3ccc(F)cc3)nc3cccnc32)cc1	active: 0%
CCOc1no[n+]([O-])c1-c1ccccc1	inactive: 87%
Cc1ccc2c(c1)-c1onc(C(=O)N3CCN(c4ccc(Cl)cc4)CC3)c1CO2	inactive: 88%
CCCNC(=O)C1CCC(Cn2c(=O)c3sccc3n(Cc3ccccc3F)c2=O)CC1 (configuration not stated)	inactive: 77%
